Molecules are shown by their SMILES. The list shows a part of the results.

The subject of the experiment is T1, C. trachomatis L2/434/Bu expressing GFP (CTL2-GFP).
T1 construct: L2/434/Bu GFP intracellular growth in HeLa cells
Further details: species or system HeLa; C. trachomatis total inclusion area by high-content imaging, normalised to DMSO. Particulars: total inclusion area; 28.5 h, 10 µM; inhibitor. The essentials:
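After bulk GFP and resorufin fluorescence reads, cells were fixed, stained with Hoechst and imaged by high-content microscopy. Inclusion area and number (GFP) stood in for chlamydial growth, nuclei count (Hoechst) for host cell viability. MICs were derived as for the bulk readout.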
With `Cc1cc(C)c2c(CC(=O)N(C)CCN(C)C)coc2c1` [CBK282174], the “% of control remaining” value is 96.7998.
Turning to `O=C(NCc1ccncc1)c1ccc(-n2ccnc2)c(-n2cccc2)c1` [CBK285367], the “% of control remaining” value was found to be 96.4915.
On to `CC1=NN(C(=O)c2c(Cl)c(C)nn2C)C(O)(C(F)(F)F)C1` (stereo not drawn) [CBK058892], for which the “% of control remaining” value is 103.365.
Under `Cc1cc(-c2cnc(N)nc2)cc(C2CCCN(C(=O)COc3c(C)cccc3C)C2)n1` (stereo not drawn) [CBK285933] stands 95.6122.
With `c1cncc(OCCN2CCN(c3nccnc3OCCN3CCOCC3)CC2)c1` [CBK082914] the figure was 96.0267; with `CN(C)c1ncc(-c2ccccc2)c(C2CCCN2Cc2ccc3ncccc3c2)n1` (stereo not drawn) [CBK286256], 61.881; with `CC(=O)Nc1nc(OCC(F)(F)F)cnc1-c1cccc(C(=O)N(C)C)c1` [CBK145401], 92.3109.
With `O=c1c2c(-c3ccc(F)cc3)csc2ncn1CC1(CO)CCOCC1` [CBK306822], the “% of control remaining” value was determined as 69.3894.
Under `CCCc1ccc(N(C)C(=O)c2ccc(OCC)cc2)cc1` [CBK161615] stands 50.9013; under `O=C(Nc1ccc2c(c1)CCO2)N1CCCC1c1nc(-c2ccccc2)c2ccccn12` (stereo not drawn) [CBK046733], 83.0278; under `CC(C)(N)CNC(=O)c1cc(-c2ccc(Cl)cc2)[nH]n1` [CBK116554], 103.265.
With `COc1ccc(-c2cc(NC(=S)NC(=O)/C=C/c3ccccc3)[nH]n2)cc1` [CBK007190] the figure was 81.5037; with `Clc1ccc(CN2CCN(c3nccnc3OCCN3CCOCC3)CC2)cc1` [CBK082887T], 84.9783.
With `O=C(NCc1cccc(C(F)(F)F)c1)N1CCN(CCc2ccccc2)CC1` [CBK158902] the figure was 85.396; with `Cc1ccc(Nc2nc(N)nc(CSc3nnc(-c4ccncc4)o3)n2)cc1` [CBK266464], 113.206; with `OCC1CCCN1c1nccnc1-c1cccnc1` (stereo not drawn) [CBK089049], 92.0181.
In the case of `O=C(O)COCC(=O)N1CCN(CCc2ccccc2)CC1` [CBK270298], the “% of control remaining” value was determined as 85.8003.
Under `Cc1ccccc1OCc1nnc(SCc2nnc(-c3ccccc3)o2)n1C` [CBK267406] stands 108.885; under `Cc1ccc2nc(-c3ccncc3)cc(C(=O)N3CCN(C4CCCCC4)CC3)c2c1` [CBK267736], 120.221.
`CC(C)(C)OC(=O)NCc1ccc2cccc(OCCO)c2n1` [CBK000585]: the “% of control remaining” value came out at 79.3272.
On to `Cc1c(C(C)NCC(O)c2ccco2)cnn1-c1ccc(C#N)cc1` (stereo not drawn) [CBK306462], for which the “% of control remaining” value is on record as 68.4066.
As to `COc1ccc(CNc2nc(-c3cccnc3)nn2C(=O)c2ccc([N+](=O)[O-])cc2)cc1` [CBK268966], the “% of control remaining” value is given as 117.533.
Under `CN(Cc1cnn(C)c1)C(=O)c1ccc(Br)cc1O` [CBK305742] stands 20.5902.
As to `CC(=O)NCc1ccc(C)n1C` [CBK046356], the “% of control remaining” value worked out at 110.661.
For `Cc1nnnn1-c1cc(NC(=O)NCCCc2nc[nH]n2)ccc1F` [CBK304102], the “% of control remaining” value worked out at 27.8982.
With `CCOC(=O)N1CCC(NC(=O)CCC(=O)O)CC1` [CBK286569], the “% of control remaining” value was 57.3678.
On to `CNC(=O)CCc1ccccc1NC(=O)NCCSc1ncn[nH]1` [CBK307253], for which the “% of control remaining” value is 87.1043.
For the compound `CN(Cc1ccccc1)c1nccnc1-c1ccsc1` [CBK037394], the “% of control remaining” value is 119.713.
Turning to `Cc1cc(Cl)ccc1CNC(=O)C1(c2ccccc2)CCCC1` [CBK149519], the “% of control remaining” value is reported as 104.883.
Consider `CN(C)C(=O)c1ccc(-c2ncc(OCc3cccs3)nc2N)cc1` [CBK145187], for which the “% of control remaining” value was 100.895.
For `CCCCCn1c(=O)c(C(=O)NCc2ccc(Cl)cc2)c(O)c2ccccc21` [CBK291131], the “% of control remaining” value was 100.766.
On to `CCOc1c(CNCc2ccccn2)cccc1OC` [CBK268104C], for which the “% of control remaining” value was found to be 122.068.
With `Cc1ccc(-c2n[nH]c(=S)n2CC(=O)N2CCC(C(=O)Nc3ccc4c(c3)OCO4)CC2)cc1` [CBK297887] the figure was 87.9553; with `Cc1ccc(C(=O)NCCc2nnc3ccc(Cl)nn23)cc1` [CBK287636], 101.635; with `CC(C)(C)OC(=O)N1CCC(C(Cc2ccc(-c3ccc(S(C)(=O)=O)cc3)cc2)C(=O)NCCOCCO)CC1` (stereo not drawn) [CBK173128], 95.177.
Turning to `COc1nc2ccn(CCNC(=O)C(C)C)c(=O)c2cc1C#N` [CBK307015], the “% of control remaining” value is listed as 74.9831.
In the case of `N#Cc1cc(CN2CCCN(S(=O)(=O)c3ccc(C(F)(F)F)cc3Cl)CC2)ccc1F` [CBK063100], the “% of control remaining” value came out at 70.8998.
As for `O=C(O)CC(CC(=O)N1CCN(Cc2ccc3c(c2)OCO3)CC1)c1ccccc1` (stereo not drawn) [CBK074769], the “% of control remaining” value was determined as 90.7498.
`Cc1nc[nH]c1CN1CCCN(S(=O)(=O)c2ccc(-n3cnc(Cl)c3Cl)cc2)CC1` [CBK063087]: the “% of control remaining” value stood at 92.8468.
With `COc1cnc(-c2cnn(C)c2)c(NC(=O)c2ccco2)n1` [CBK145329] the figure was 98.6367; with `O=[N+]([O-])c1ccc(N2CCN(C/C=C/c3ccccc3[N+](=O)[O-])CC2)cc1` [CBK261895], 98.7037.
Regarding `CC(=O)N(C)Cc1cccc(Nc2ncnc3c2cnn3CCC#N)c1` [CBK306232], the “% of control remaining” value turned out to be 29.5638.
With `c1ccc(CSc2nnc3[nH]c4ccccc4n23)cc1` [CBK267841], the “% of control remaining” value came out at 87.4244.
Under `CN1CCC(O)(Cn2cnc3cc(-c4ccc(F)cc4)sc3c2=O)CC1` [CBK307434] stands 50.7914; under `O=S(=O)(Nc1ccc(C(O)(C(F)(F)F)C(F)(F)F)cc1)c1ccccc1Br` [CBK062101], 97.6067.
Consider `CC(=O)c1ccc(-c2nc(-c3ccoc3)cnc2N)cc1` [CBK064058], for which the “% of control remaining” value is on record as 108.592.
As for `Cc1nc(CCNCc2c(C)nn(C)c2N(C)C)cs1` [CBK304828], the “% of control remaining” value is 66.6076.
Under `Cc1nc2cc(C(=O)NC(C)c3ccccn3)ccc2n1C` (stereo not drawn) [CBK281822] stands 137.016; under `O=C(c1ccc2[nH]nnc2c1)N1CCc2ccccc21` [CBK200365], 107.79.
For `C=CCN(C(=S)NCc1ccc2c(c1)OCO2)C1CCCCC1` [CBK200037], the “% of control remaining” value is 112.179.
Regarding `CCOC(=O)c1cnc2ccc(F)cc2c1NCc1ccco1` [CBK265834], the “% of control remaining” value was 79.0176.

For the origin of these results see article PMC12040169 (PLOS Biology, 2025).
